Assay results: patent US7423058B2, “Inhibitors of hepatitis C virus NS3 protease” (Schering Corporation, priority 2004, dated 2008)

Molecular target: Recombinant heterodimeric HCV NS3/NS4A protease (strain 1a) (Hepatitis C virus genotype 1a, UniProt P27958)
Experiment: Spectrophotometric assay for HCV protease inhibitory activity (chromogenic ester substrates)
Format: biochemical
Conditions: Table 3, Esters; read-out: Ki* Range

| SMILES | Ki [nM] |
| --- | --- |
| C=CCNC(=O)C(=O)C(CCC)NC(=O)[C@@H]1CC2(CN1C(=O)[C@@H](NC(=O)N[C@H](C(=O)OC(C)(C)C)C(C)C)C1CCCCC1)SCCS2 (some centres unmarked) [compound 4597] | 76 to 250 |
| CC(C)[C@H](NC(=O)NC1(C(=O)OCc2ccccc2)CCCCC1)C(=O)N1C[C@H]2[C@@H]([C@H]1C(=O)NC(CC1CC1)C(=O)C(N)=O)C2(C)C (some centres unmarked) [compound 4599] | 76 to 250 |
| C=CCNC(=O)C(=O)C(CCC)NC(=O)[C@@H]1[C@@H]2[C@H](CN1C(=O)[C@@H](NC(=O)NC1(C(=O)OC(C)(C)C)CCCCC1)C(C)(C)C)C2(C)C (some centres unmarked) [compound 4600] | 76 to 250 |
| CC1(C)[C@@H]2[C@@H](C(=O)NC(CC3CC3)C(=O)C(N)=O)N(C(=O)[C@@H](NC(=O)N[C@H](C(=O)OCC3CC3)C3CCC3)C3(C(F)(F)F)CC3)C[C@@H]21 (some centres unmarked) [compound 4601] | 76 to 250 |
| CC(C)(C)[C@H](NC(=O)NC1(C(=O)OCc2ccccc2)CC1)C(=O)N1C[C@H]2[C@@H]([C@H]1C(=O)NC(CC1CC1)C(=O)C(N)=O)C2(C)C (some centres unmarked) [compound 4602] | 76 to 250 |
| CC(C)(C)[C@H](NC(=O)N[C@@H](C(=O)OCc1ccccc1)C(C)(C)C)C(=O)N1C2CCC(C2)[C@H]1C(=O)NC(CC1CC1)C(=O)C(N)=O (some centres unmarked) [compound 4603] | 76 to 250 |
| C=CCNC(=O)C(=O)C(CC1CCC1)NC(=O)[C@@H]1[C@@H]2[C@H](CN1C(=O)[C@@H](NC(=O)N[C@H](C(=O)OC(C)(C)C)C(C)(C)C)C(C)(C)C)C2(C)C (some centres unmarked) [compound 4604] | 76 to 250 |
| CC(C)(C)[C@H](NC(=O)NC1(C(=O)OCc2ccccc2)CCCCC1)C(=O)N1C[C@H]2[C@@H]([C@H]1C(=O)NC(CC1CC1)C(=O)C(N)=O)C2(Cl)Cl (some centres unmarked) [compound 4605] | 76 to 250 |
| CC(OC(=O)[C@@H](NC(=O)N[C@H](C(=O)N1C[C@H]2[C@@H]([C@H]1C(=O)NC(CC1CC1)C(=O)C(N)=O)C2(Cl)Cl)C(C)(C)C)C(C)C)C1CC1 (some centres unmarked) [compound 4606] | 76 to 250 |
| CNC(=O)C(=O)C(CCC(F)(F)F)NC(=O)[C@@H]1[C@@H]2[C@H](CN1C(=O)[C@@H](NC(=O)N[C@H](C(=O)OC1CCC1)C(C)(C)C)C(C)(C)C)C2(C)C (some centres unmarked) [compound 4607] | 76 to 250 |
| CC(C)(C)OC(=O)[C@@H](NC(=O)N[C@H](C(=O)N1C[C@H]2[C@@H]([C@H]1C(=O)NC(CC1CC1)C(=O)C(=O)NCc1ccccc1)C2(C)C)C(C)(C)C)C(C)(C)C (some centres unmarked) [compound 4608] | 76 to 250 |
| C=CCNC(=O)C(=O)C(CC1CCC1)NC(=O)[C@@H]1[C@@H]2[C@H](CN1C(=O)[C@@H](NC(=O)N[C@H](C(=O)OC(C)(C)C)C(C)C)C(C)(C)C)C2(C)C (some centres unmarked) [compound 4609] | 76 to 250 |
| CC(C)[C@H](NC(=O)N[C@H](C(=O)N1C[C@H]2[C@@H]([C@H]1C(=O)NC(CC1CC1)C(=O)C(=O)NCc1ccccn1)C2(C)C)C(C)(C)C)C(=O)OC(C)(C)C (some centres unmarked) [compound 4610] | 76 to 250 |
| CCCCC(NC(=O)[C@@H]1[C@@H]2[C@H](CN1C(=O)[C@@H](NC(=O)N[C@H](C(=O)OC(C)(C)C)C(C)(C)C)C1CCCCC1)C2(C)C)C(=O)C(=O)NCC1CC1 (some centres unmarked) [compound 4612] | 76 to 250 |
| C=CCNC(=O)C(=O)C(CCCC)NC(=O)[C@@H]1[C@@H]2[C@H](CN1C(=O)[C@@H](NC(=O)N[C@H](C(=O)OC1Cc3ccccc3C1)C(C)C)C(C)(C)C)C2(C)C (some centres unmarked) [compound 4614] | 76 to 250 |
| CC(C)[C@H](NC(=O)N[C@H](C(=O)N1C[C@H]2[C@@H]([C@H]1C(=O)NC(CC1CC1)C(=O)C(N)=O)C2(C)C)C1(C(F)(F)F)CC1)C(=O)OCc1ccccc1 (some centres unmarked) [compound 4615] | 76 to 250 |
| CNC(=O)C(=O)C(CCC(F)(F)F)NC(=O)[C@@H]1[C@@H]2[C@H](CN1C(=O)[C@@H](NC(=O)N[C@H](C(=O)OC1CCCC1)C(C)C)C(C)(C)C)C2(C)C (some centres unmarked) [compound 4616] | 76 to 250 |
| CC1(C)C[C@@H](C(=O)NC(CC2CC2)C(=O)C(N)=O)N(C(=O)[C@@H](NC(=O)N[C@H](C(=O)OC(C)(C)C)C(C)(C)C)C2CCCCC2)C1 (some centres unmarked) [compound 4617] | 76 to 250 |
| CC(C)(C)OC(=O)[C@@H](NC(=O)N[C@H](C(=O)N1C[C@H]2[C@@H]([C@H]1C(=O)NC(CC1CC1)C(=O)C(=O)NC1CC1)C2(C)C)C(C)(C)C)C(C)(C)C (some centres unmarked) [compound 4618] | 76 to 250 |
| C=CCNC(=O)C(=O)C(CC(C)C)NC(=O)[C@@H]1[C@@H]2[C@H](CN1C(=O)[C@@H](NC(=O)N[C@H](C(=O)OC(C)(C)C)C(C)(C)C)C(C)(C)C)C2(C)C (some centres unmarked) [compound 4619] | 76 to 250 |
| CC(C)(C)[C@H](NC(=O)N[C@H](C(=O)N1C[C@H]2[C@@H]([C@H]1C(=O)NC(CC1CC1)C(=O)C(N)=O)C2(C)C)C1(C(F)(F)F)CC1)C(=O)OCC1CC1 (some centres unmarked) [compound 4620] | 76 to 250 |
| CCCCNC(=O)C(=O)C(CCCC)NC(=O)[C@@H]1[C@@H]2[C@H](CN1C(=O)[C@@H](NC(=O)N[C@H](C(=O)OC(C)(C)C)C(C)(C)C)C1CCCCC1)C2(C)C (some centres unmarked) [compound 4621] | 76 to 250 |
| CC(C)(C)C[C@H](NC(=O)N[C@H](C(=O)N1C[C@H]2[C@@H]([C@H]1C(=O)NC(CC1CC1)C(=O)C(N)=O)C2(C)C)C(C)(C)C)C(=O)OCc1ccccc1 (some centres unmarked) [compound 4622] | 76 to 250 |
| CC(C)(C)C[C@H](NC(=O)N[C@H](C(=O)N1C[C@H]2[C@@H]([C@H]1C(=O)NC(CC1CCC1)C(=O)C(N)=O)C2(C)C)C(C)(C)C)C(=O)OCc1ccccc1 (some centres unmarked) [compound 4623] | 76 to 250 |

| SMILES | Ki [nM] |
| --- | --- |
| COC(=O)C1(NC(=O)N[C@H](C(=O)N2C[C@H]3[C@@H]([C@H]2C(=O)NC(CC2CCC2)C(=O)C(N)=O)C3(Cl)Cl)C(C)(C)C)CCCC1 (some centres unmarked) [compound 4624] | 76 to 250 |
| CC(C)CC(NC(=O)N[C@H](C(=O)N1C[C@H]2[C@@H]([C@H]1C(=O)NC(CC1CC1)C(=O)C(N)=O)C2(C)C)C1CCCCC1)C(=O)OCc1ccccc1 (some centres unmarked) [compound 4625] | 76 to 250 |
| CNC(=O)C(=O)C(CC1CC1)NC(=O)[C@@H]1[C@@H]2[C@H](CN1C(=O)[C@@H](NC(=O)NC1(C(=O)OCc3ccccc3)CCCCC1)C(C)(C)C)C2(C)C (some centres unmarked) [compound 4627] | 76 to 250 |
| CC1(C)C[C@H]2[C@H](CN(C(=O)[C@@H](NC(=O)NC3(C(=O)OCc4ccccc4)CCCCC3)C3CCCCC3)[C@@H]2C(=O)NC(CC2CC2)C(=O)C(N)=O)O1 (some centres unmarked) [compound 4628] | 76 to 250 |
| C#CCCNC(=O)C(=O)C(CCCC)NC(=O)[C@@H]1[C@@H]2[C@H](CN1C(=O)[C@@H](NC(=O)N[C@H](C(=O)OCC1CC1)C(C)C)C(C)(C)C)C2(C)C (some centres unmarked) [compound 4629] | 76 to 250 |
| CC(C)(C)[C@H](NC(=O)N[C@H](C(=O)N1C[C@H]2[C@@H]([C@H]1C(=O)NC(CC1CCC1)C(=O)C(N)=O)C2(Cl)Cl)C(C)(C)C)C(=O)OCc1ccccc1 (some centres unmarked) [compound 4630] | > 250 |
| CC1(C)[C@@H]2[C@@H](C(=O)NC(CC3CC3)C(=O)C(N)=O)N(C(=O)[C@@H](NC(=O)N[C@H](C(=O)OCc3ccccc3)C3CCCC3)C3(C(F)(F)F)CC3)C[C@@H]21 (some centres unmarked) [compound 4631] | > 250 |
| CC(C)(C)[C@H](NC(=O)N[C@H](C(=O)N1C2CCC(C2)[C@H]1C(=O)NC(CC1CC1)C(=O)C(N)=O)C1CCCCC1)C(=O)OCc1ccccc1 (some centres unmarked) [compound 4632] | > 250 |
| CC(C)CC(NC(=O)N[C@H](C(=O)N1C[C@H]2[C@@H]([C@H]1C(=O)NC(CC1CC1)C(=O)C(N)=O)C2(C)C)C(C)(C)C)C(=O)OCc1ccccc1 (some centres unmarked) [compound 4634] | > 250 |
| CCC(C)[C@H](NC(=O)N[C@H](C(=O)N1C[C@@H]2OC(C)(C)C[C@@H]2[C@H]1C(=O)NC(CC1CC1)C(=O)C(N)=O)C1CCCCC1)C(=O)OCc1ccccc1 (some centres unmarked) [compound 4635] | > 250 |
| CC(C)(C)OC(=O)[C@@H](NC(=O)N[C@H](C(=O)N1C[C@H]2[C@@H]([C@H]1C(=O)NC(CC1CC1)C(=O)C(=O)NCCc1ccccc1)C2(C)C)C(C)(C)C)C(C)(C)C (some centres unmarked) [compound 4636] | > 250 |
| CC(C)(C)OC(=O)[C@@H](NC(=O)N[C@H](C(=O)N1C[C@@H]2OC(C)(C)C[C@@H]2[C@H]1C(=O)NC(CC1CC1)C(=O)C(N)=O)C1(C)CCCCC1)C(C)(C)C (some centres unmarked) [compound 4637] | > 250 |
| C=CCNC(=O)C(=O)C(CCCC)NC(=O)[C@@H]1[C@@H]2[C@H](CN1C(=O)[C@@H](NC(=O)N[C@H](C(=O)OC(C)C)C(C)C)C1CCCCC1)C2(C)C (some centres unmarked) [compound 4638] | > 250 |
| C=CCNC(=O)C(=O)C(CC(C)C)NC(=O)[C@@H]1[C@@H]2[C@H](CN1C(=O)[C@@H](NC(=O)N[C@H](C(=O)OC(C)(C)C)C(C)C)C(C)(C)C)C2(C)C (some centres unmarked) [compound 4639] | > 250 |
| CC(C)[C@H](NC(=O)N[C@H](C(=O)N1C[C@H]2[C@@H]([C@H]1C(=O)NC(CC1CC1)C(=O)C(N)=O)C2(Cl)Cl)C(C)(C)C)C(=O)OC1Cc2ccccc2C1 (some centres unmarked) [compound 4640] | > 250 |
| CC(C)(C)[C@H](NC(=O)NC1(C(=O)OCc2ccccc2)CCCC1)C(=O)N1C[C@H]2[C@@H]([C@H]1C(=O)NC(CC1CCC1)C(=O)C(N)=O)C2(C)C (some centres unmarked) [compound 4641] | > 250 |
| CC(C)(C)[C@H](NC(=O)NC1(C(=O)OCc2ccccc2)CCOCC1)C(=O)N1C[C@H]2[C@@H]([C@H]1C(=O)NC(CC1CC1)C(=O)C(N)=O)C2(C)C (some centres unmarked) [compound 4642] | > 250 |
| CC1(C)[C@@H]2[C@@H](C(=O)NC(CC3CC3)C(=O)C(N)=O)N(C(=O)[C@@H](NC(=O)N[C@H](C(=O)OCC3CC3)C3(C(F)(F)F)CC3)C3(C(F)(F)F)CC3)C[C@@H]21 (some centres unmarked) [compound 4643] | > 250 |
| COC(=O)C(C)(C)NC(=O)N[C@H](C(=O)N1C[C@H]2[C@@H]([C@H]1C(=O)NC(CC1CC1)C(=O)C(N)=O)C2(Cl)Cl)C(C)(C)C (some centres unmarked) [compound 4644] | > 250 |
| CC(C)(C)[C@H](NC(=O)NC1(C(=O)OCc2ccc3ccccc3c2)CCCCC1)C(=O)N1C[C@H]2[C@@H]([C@H]1C(=O)NC(CC1CCC1)C(=O)C(N)=O)C2(C)C (some centres unmarked) [compound 4645] | > 250 |
| CC(C)[C@H](NC(=O)N[C@H](C(=O)N1C[C@H]2[C@@H]([C@H]1C(=O)NC(CC1CC1)C(=O)C(=O)NCC1CC1)C2(C)C)C(C)(C)C)C(=O)OC(C)(C)C (some centres unmarked) [compound 4647] | > 250 |
| CC(C)(C)OC(=O)C1(NC(=O)N[C@H](C(=O)N2C[C@H]3[C@@H]([C@H]2C(=O)NC(CC2CC2)C(=O)C(N)=O)C3(C)C)C(C)(C)C)CCC(=O)CC1 (some centres unmarked) [compound 4648] | > 250 |
| C#CCCCC(NC(=O)[C@@H]1[C@@H]2[C@H](CN1C(=O)[C@@H](NC(=O)N[C@H](C(=O)OC(C)(C)C)C(C)(C)C)C(C)(C)C)C2(C)C)C(=O)C(=O)NCC=C (some centres unmarked) [compound 4649] | > 250 |
